# In the BET-seq Pho4 binding data (Le et al. 2018):
# Some of the results follow. Values were computed here from the reads of four pooled replicates and scatter widely.
# Biological target: T1, Pho4 (S. cerevisiae) (UniProt P07270)
# T1 sequence: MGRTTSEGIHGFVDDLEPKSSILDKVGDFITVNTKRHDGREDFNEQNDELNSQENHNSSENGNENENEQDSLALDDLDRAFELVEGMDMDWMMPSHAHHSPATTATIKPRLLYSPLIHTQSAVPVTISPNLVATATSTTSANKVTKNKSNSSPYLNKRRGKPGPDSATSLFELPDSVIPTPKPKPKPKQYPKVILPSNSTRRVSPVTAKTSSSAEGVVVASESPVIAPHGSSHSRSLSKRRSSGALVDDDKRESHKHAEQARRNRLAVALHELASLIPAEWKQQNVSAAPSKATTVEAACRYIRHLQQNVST
# Assay: relative binding free energy (BET-seq); higher = weaker binding
# Conditions: reference: library average
row,Sequence,relative binding free energy [kcal/mol]
1,GTATGCACGTGGTGAT,-0.02
2,TGGCACACGTGGAGAG,0.1
3,TGCACCACGTGGTGGG,-0.17
4,CGCGTCACGTGGTAGG,0.04
5,GGTTTCACGTGGGCTC,0.26
6,TGTAGCACGTGTTTCG,-0.12
7,GTTGACACGTGATGTG,0.23
8,ATCTACACGTGAGTGT,0.14
9,TGCAGCACGTGGTAGG,-0.17
10,AAATTCACGTGTGGTT,0.31
11,GTATTCACGTGAATTG,0.38
12,ATATACACGTGTTGGA,0.03
13,GTGCCCACGTGGTTGT,-0.15
14,TATCTCACGTGGTGTT,0.13
15,TGGTACACGTGATTAA,0.26
16,ATTGTCACGTGGGGGC,0.01
17,TTGTCCACGTGAGCGT,0.2
18,TGTATCACGTGGGTCC,0.17
19,TTGGGCACGTGTTATC,0.03
20,AGGAGCACGTGCGTGG,-0.11
21,GGATTCACGTGATAAA,0.64
22,GGAGTCACGTGGCGGT,0.05
23,TAGGTCACGTGGACTT,0.07

row,Sequence,relative binding free energy [kcal/mol]
1,CGAAGCACGTGCTGGG,-0.11
2,AGTAGCACGTGTGATG,-0.02
3,GGAGGCACGTGGTTTG,-0.03
4,ATCTGCACGTGGTTAT,-0.04
5,GTAGGCACGTGTTCTT,-0.11
6,TCAGGCACGTGTGATA,0.11
7,CAGGTCACGTGTATGG,0.09
8,GTCGGCACGTGATTAG,0.04
9,ATAAGCACGTGATGGC,0.1
10,TTGGTCACGTGGAAAG,0.17
11,GGAAGCACGTGAGAGG,0.08
12,TAAAGCACGTGGTTAT,-0.14
13,AGTATCACGTGGGGGG,0.08
14,GTTCCCACGTGGTGGG,-0.05
15,GGTGTCACGTGGGTGT,0.07
16,ATGAGCACGTGATGAT,-0.07
17,AACGGCACGTGAGGGA,0.24
18,GTTACCACGTGTGGCT,0.15
19,CGTGGCACGTGTTAGT,-0.07
20,ATTGTCACGTGAAATC,0.37
21,CGATACACGTGGGTGG,-0.06
22,AATTTCACGTGAATGG,0.27
23,TATGGCACGTGATCGG,-0.09

row,Sequence,relative binding free energy [kcal/mol]
1,GCTGACACGTGTCGGG,0.22
2,CTAAACACGTGTTGGT,-0.02
3,TGGGGCACGTGCGTGG,-0.18
4,GTTGTCACGTGCTGGT,0.13
5,TAATACACGTGGGTCG,-0.06
6,TGTAGCACGTGGTTCA,-0.3
7,TGTACCACGTGGGGTT,-0.23
8,TCTGTCACGTGGCTAG,0.19
9,GTGAACACGTGAGTGA,0.18
10,GTCGTCACGTGTGTGA,0.23
11,CGGGGCACGTGAAGCG,0.14
12,GGTAACACGTGATTGG,0.12
13,GAGTGCACGTGGGTAA,-0.08
14,GTATTCACGTGAGTAT,0.31
15,GTTTTCACGTGAACGT,0.48
16,GAGGTCACGTGGGTTA,0.08
17,GAGTGCACGTGTTTTA,0.03
18,CTTTTCACGTGTGGCG,0.17
19,GGTTGCACGTGATGTG,0.11
20,AGTGGCACGTGTTGGT,-0.07
21,TTTTTCACGTGGTCAC,0.22
22,GTGGGCACGTGGTTAT,-0.09
23,ACAGGCACGTGGTTAT,-0.18

row,Sequence,relative binding free energy [kcal/mol]
1,TTTCGCACGTGGTTGT,-0.09
2,AGTTTCACGTGTGCGG,0.31
3,TGCTTCACGTGAGTGC,0.36
4,GGGGCCACGTGTGGCG,0.03
5,CTGATCACGTGAGTGG,0.34
6,AACGGCACGTGGTTGA,-0.13
7,ATTTTCACGTGTGCGC,0.24
8,GTTGACACGTGTAGTG,0.11
9,TATTACACGTGTTGGA,0.15
10,TTTGGCACGTGGCGGG,-0.11
11,TATTTCACGTGTTCTT,0.12
12,TATATCACGTGGTTGC,0.02
13,TGTAACACGTGTTAGT,-0.01
14,AGTGTCACGTGTAATA,0.25
15,GTGTCCACGTGGGTAT,-0.17
16,TGTTTCACGTGCCGGA,0.15
17,TTTTGCACGTGTCTTT,0.05
18,TATATCACGTGGGACA,0.08
19,GGTGCCACGTGAAGGT,0.2
20,CGCTTCACGTGTAGTT,0.2
21,GGAAGCACGTGTGGAT,0.02
22,GTAGACACGTGTGAGG,0.03
23,AGGTGCACGTGTGAGG,0

row,Sequence,relative binding free energy [kcal/mol]
1,TCGGACACGTGATTGT,0.11
2,GAGAACACGTGAGGTG,0.35
3,AAATCCACGTGTTTGG,0.04
4,AGTGTCACGTGAGTGG,0.11
5,GGTGTCACGTGAACGG,0.24
6,GAAGTCACGTGTTAAG,0.21
7,TTGTGCACGTGGAGGC,0.01
8,TTGTGCACGTGACCTG,0.15
9,TTATTCACGTGATTAG,0.34
10,GACGGCACGTGGGGTG,-0.26
11,GTTTTCACGTGATATA,0.24
12,TTTAACACGTGTACTA,0.06
13,CCGGTCACGTGTGGTT,0.11
14,AATATCACGTGCTGTG,0.14
15,TAGTTCACGTGGTGCC,0.18
16,TGATCCACGTGAGTTT,0.24
17,GCGGTCACGTGAAGTT,0.37
18,TGTCGCACGTGGGGCG,-0.2
19,AGGTACACGTGGTAAG,-0.1
20,TGGAGCACGTGCGGCG,0.03
21,AGTTACACGTGGGCTT,-0.12
22,CGTTGCACGTGACAGG,0.17
23,CGTTACACGTGTTGTA,0.22
